Hit rate of the full screen: of about 310,000 compounds, about 18,000 (5.8%) were called active. This list was built around the results that the source calls inconclusive (neither active nor inactive); the mix of calls is not that of the screen. Calls follow the shape of the dose curve; as a rule, active = well fitted inhibition curve with a large enough effect; inconclusive = small, poorly fitted or top-dose-only effect, or another doubt; inactive = no such curve, though single readings can be large or run the other way. No potency is given beside an inconclusive call; the fits are too rough.
experiment: Primary qHTS for delayed death inhibitors of the malarial parasite plastid, 48 hour incubation; conditions: P. falciparum luciferase growth in erythrocytes; series mostly up to 28.7 µM; activity change, negative = inhibition: at the top concentration
Method in brief: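 Compounds are pin-transferred into medium, infected erythrocytes (2% hematocrit, 0.1% parasitemia final) are added, and plates sit one parasite generation at 37 C in 5% CO2. Detection reagent is then added and luminescence measured.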
% is scaled to controls: 0 for no effect and ±100 for the full control effect; potency is read from the fitted curve at half-maximal effect; tags tell the direction and shape of the fitted curve.

Compound	Potency	activity change, negative = inhibition
COc1cccc(N2CCN(CC(=O)c3c[nH]c4ccc(OC)cc34)CC2C)c1 (configuration not stated)	active: 11.7 µM	–
COC(=O)c1c(CCl)noc1C(=O)NCC1CCCO1 (configuration not stated)	inconclusive [inhibitor, single point]	–
O=C(NC1CC1)c1ccc(NS(=O)(=O)c2ccccc2)cc1	inconclusive [inhibitor, full curve, poor fit]	–
CSc1nccc(Oc2ccc(C#N)cc2)n1	–	inactive: -5.09%
COc1cc(/C=C/C(=O)N2CCN(C)CC2)cc(S(=O)(=O)N2CCc3ccccc32)c1OC	–	inactive: 44.2%
O=C(Cc1c(F)cccc1Cl)Nc1cc(S(=O)(=O)N2CCOCC2)ccc1N1CCOCC1	inconclusive [inhibitor, single point]	–
O=[N+]([O-])c1cc(Br)c(O)c(/C=N/Nc2nc3ccccc3s2)c1	inconclusive [inhibitor, single point]	–
COc1ccc(-c2nn(-c3ccccc3)cc2C(=O)N2CCN(S(=O)(=O)c3cccc(F)c3)CC2)cc1	active: 10.4 µM	–
COc1ccc(N2C(=O)c3ccc(C(=O)Nc4ccccc4O)cc3C2=O)cc1	–	inactive: -26.1%
Cc1cc(N)n(-c2ccc([N+](=O)[O-])cc2)n1	–	inactive: 24.6%
CCCCn1c(O)c(C=NC2CC3CCC2(C)C3(C)C)c(=O)[nH]c1=O (configuration not stated)	active: 10.4 µM	–
CCCn1c(=S)[nH]c2cc(C(=O)N3CCc4ccccc43)ccc2c1=O	–	inactive: 23.7%
C=C(C)Cn1c(N2CCCC2)nc2c1c(=O)n(C)c(=O)n2C	–	inactive: -3.04%
O=C(N1CCOCC1)N(Cc1cccs1)C1CCCC1	–	inactive: -7.07%
O=c1c2ccccc2sn1-c1ccc(F)cc1	active: 10.4 µM	–
COCCCN(C(=O)c1ccc(N2CCCC2=O)cc1)c1c(N)n(Cc2ccccc2)c(=O)[nH]c1=O	inconclusive [inhibitor, partial curve, poor fit]	–
COC(=O)C(C)Sc1nc2c(c(=O)[nH]c(=O)n2C)n1CCCc1ccccc1 (configuration not stated)	inconclusive [inhibitor, partial curve]	–
NS(=O)(=O)c1ccc(N/N=C/c2cn(-c3ccccc3)nc2-c2cccs2)cc1	active: 0.185 µM	–
c1ccc(-c2ccccc2OCCCCN2CCCCCC2)cc1	inconclusive [inhibitor, partial curve]	–
Cc1ccc(NC(=O)CCc2nnc3ccc(N4CCC5(CC4)OCCO5)nn23)nc1	inconclusive [inhibitor, single point]	–
Cc1cc2c(c(=O)n1C1CC1)C(c1cccc(Cl)c1)C(C#N)=C(N)O2 (configuration not stated)	inconclusive [inhibitor, full curve, poor fit]	–
C[C@@H]1C=C[C@](Cc2ccccc2)(C(=O)NCCc2c[nH]c3ccccc23)N1C(=O)c1ccccc1	inconclusive [inhibitor, single point]	–
CCC(=O)c1ccc(O)c(OC)c1	inconclusive [inhibitor, full curve, poor fit]	–

Compound	Potency	activity change, negative = inhibition
COc1ccccc1NS(=O)(=O)c1ccc2oc(SC3CCOC3=O)nc2c1 (configuration not stated)	inconclusive [inhibitor, single point]	–
COc1ccc(S(=O)(=O)NNC(=O)c2ccc(-n3c(C)ccc3C)cc2)cc1	inconclusive [inhibitor, partial curve]	–
Cc1cccc(NS(=O)(=O)c2ccc(Oc3ccccc3)cc2)n1	inconclusive [inhibitor, single point]	–
COc1ccc(Nc2ccnc3ccccc23)cc1	active: 11.7 µM	–
CSCCC(NC(=O)c1ccccc1Cl)C(=O)N(C)CC(=O)Nc1ccc(N2CCOCC2)cc1 (configuration not stated)	inconclusive [inhibitor, single point]	–
NC(=O)c1nsc(C(=O)N(Cc2cccnc2)C(C(=O)NCc2ccc(F)cc2)c2ccc(O)cc2)c1N (configuration not stated)	inconclusive [inhibitor, partial curve, poor fit]	–
CCCCN1C(=O)C(=O)N(CC(=O)N2CCc3ccccc32)C1=O	–	inactive: -12.2%
CC1CCN(c2ccc(NC(=O)c3ccc([N+](=O)[O-])o3)cc2)CC1	inconclusive [inhibitor, partial curve]	–
Cn1c(CSCc2ccccc2Cl)nnc1SCC(=O)Nc1nccs1	inconclusive [inhibitor, single point]	–
Cc1[nH]c(C)c(S(=O)(=O)N2CCC(C)CC2)c1C(=O)N1CCCC1	–	inactive: 5.99%
CCOC(=O)c1c(-n2c(C)cc(/C=C3\C(=O)NC(=O)N(C)C3=O)c2C)sc2c1CCCC2	inconclusive [inhibitor, single point]	–
COC(=O)Cn1c(=O)c(C(=O)CCl)c(N)n(Cc2ccccc2)c1=O	inconclusive [inhibitor, single point]	–
CCn1cc(C(=O)NCC2CCCO2)c(=O)c2cc(S(=O)(=O)N3CCC(C)CC3)ccc21 (configuration not stated)	inconclusive [inhibitor, single point]	–
CC1(CCc2ccccc2)NC(=O)N(CC(=O)Nc2ccccc2)C1=O (configuration not stated)	–	inactive: 30.3%
CCN(CC(=O)Nc1ccc2c(c1)OCCO2)C(=O)c1cc(Cl)nc2ccccc12	inconclusive [inhibitor, partial curve, poor fit]	–
CCC(C)(C)NC(=O)C(c1ccc(OC)cc1)N(C(=O)CCC(=O)Nc1cc(C)on1)c1ccc2c(c1)OCCO2 (configuration not stated)	inconclusive [inhibitor, partial curve, poor fit]	–
Cn1nc(C(=O)NCCc2ccc(Cl)cc2)c2c1-c1ccccc1S(=O)(=O)C2	inconclusive [inhibitor, partial curve, poor fit]	–
CC1CCN(S(=O)(=O)c2ccc3c(c2)N(CC(=O)N(C)Cc2ccco2)C(=O)CO3)CC1	inconclusive [inhibitor, partial curve, poor fit]	–
O=C(NCc1nnnn1-c1ccc(F)cc1)c1ccc([N+](=O)[O-])o1	inconclusive [inhibitor, single point]	–
CCOc1ccc(NC(=O)CN(C)C(=O)Cc2c[nH]c3ccccc23)cc1OCC	inconclusive [inhibitor, partial curve, poor fit]	–
CC1(C)CCN2CCC(C)(C)c3c(O)ccc1c32	inconclusive [inhibitor, full curve, poor fit]	–
COc1ccccc1N(C)S(=O)(=O)c1ccc(Cl)c(C(=O)Nc2cccc(C)n2)c1	active: 2.08 µM	–
COc1ccc(C(=O)NCC(=O)N/N=C(\C)c2ccco2)cc1OC	–	inactive: 25.4%

Compound	Potency	activity change, negative = inhibition
O=C(N/N=C/c1cc(Br)ccc1O)Nc1ccccc1	inconclusive [inhibitor, partial curve, poor fit]	–
CSCc1ccc(C(=O)NC(C)c2cnn(-c3ccccn3)c2C)o1 (configuration not stated)	–	inactive: -16.5%
CCCC(=O)C1=C(O)C(C(=O)OC)C(C)(C)CC1=Nc1ccccc1 (configuration not stated)	active: 4.15 µM	–
CCN1C(=O)[C@@H]2[C@@H](c3ccc(-c4ccc(C(C)=O)cc4)c(OC)c3)N3CCC[C@@]3(C(=O)OC)[C@@H]2C1=O	active: 10.4 µM	–
COC(=O)c1c(-c2cccs2)csc1NC(=O)CSc1ncnc2sc(C)c(C)c12	inconclusive [inhibitor, partial curve, poor fit]	–
O=C1C=C(c2ccc(F)cc2OCc2ccccc2)C[C@@H](c2ccc3c(c2)OCO3)C1	inconclusive [inhibitor, single point]	–
CC(C)C[C@@H](CO)N1CCN(Cc2cccc(C#N)c2)CCC1=O	–	inactive: 38.2%
CC(C)CN1C(=O)c2ccc(NC(=O)c3ccccc3F)cc2C1=O	inconclusive [inhibitor, single point]	–
CCOC(=O)N1CCN(C(=O)CC(C(=O)N2CCc3ccccc32)n2ccnc2)CC1 (configuration not stated)	active: 0.0329 µM	–
Cc1c(C(=O)OCC(=O)N(CCC#N)c2ccccc2)oc2c1ccc1ccccc12	inconclusive [inhibitor, partial curve]	–
CCn1nc(C(=O)NCC(c2cccs2)N2CCOCC2)c2ccccc2c1=O (configuration not stated)	inconclusive [inhibitor, partial curve, poor fit]	–
CCOC(=O)c1c[nH]c2cc(OCC(C)C)c(OCC(C)C)cc2c1=O	active: 0.0536 µM	–
COc1cccc(NC(=O)C2CC2(c2cccc(OC)c2)c2cccc(OC)c2)c1 (configuration not stated)	inconclusive [inhibitor, partial curve]	–
Cn1c(SCc2cccc([N+](=O)[O-])c2)nc2ccccc2c1=O	active: 5.22 µM	–
Cc1ccc2cc3cc(C(=O)NCCCN4CC(C)CC(C)C4)oc3nc2c1 (configuration not stated)	inconclusive [inhibitor, full curve]	–
Cn1c(N2CCC(C(N)=O)CC2)nc2c1c(=O)n(Cc1ccc(Cl)cc1)c(=O)n2C	inconclusive [inhibitor, partial curve]	–
Cc1cc(NC(=O)c2ccccc2F)ncc1NC(=O)c1cccs1	–	inactive: 34.2%
CCOC(=O)Nc1ccc2c(c1)N(C(=O)CN(CC)CC)c1ccccc1CC2	inconclusive [inhibitor, single point]	–
COc1ccc(C(=O)c2c3ccccc3[n+]([O-])n2CCCN)cc1	inconclusive [inhibitor, single point]	–
CNC(=S)N(Cc1cc2cc(OC)c(OC)cc2[nH]c1=O)C1CCCC1	inconclusive [inhibitor, single point]	–
CC1CCCN(Cc2c(C(=O)N3CCc4ccccc4C3)nc3ccc(Cl)cn23)C1 (configuration not stated)	inconclusive [inhibitor, single point]	–
